# Several values for one entry are separate records, joined by “and”; a condition that tells them apart may be missing. Identical values can stand only once. This list was built around the results that the source calls inconclusive (neither active nor inactive); the mix of calls is not that of the screen. Potencies of inconclusive entries are doubtful fits and often do not repeat. The source holds several records for some structures; these can differ, active in one and inactive in another. Activity calls are given as the source filed them. Calls come from the whole dose curve; as a rule, active = well fitted curve in the direction sought with a large enough effect in the repeat runs; inconclusive = weak or mixed curves; inactive = no such curve, though single readings can be large; an effect the other way counts as inactive or inconclusive.
# Target: Luciferin 4-monooxygenase (Photinus pyralis) (UniProt P08659)
# Chain of UniProt P08659 (P08659 whole entry, looked up): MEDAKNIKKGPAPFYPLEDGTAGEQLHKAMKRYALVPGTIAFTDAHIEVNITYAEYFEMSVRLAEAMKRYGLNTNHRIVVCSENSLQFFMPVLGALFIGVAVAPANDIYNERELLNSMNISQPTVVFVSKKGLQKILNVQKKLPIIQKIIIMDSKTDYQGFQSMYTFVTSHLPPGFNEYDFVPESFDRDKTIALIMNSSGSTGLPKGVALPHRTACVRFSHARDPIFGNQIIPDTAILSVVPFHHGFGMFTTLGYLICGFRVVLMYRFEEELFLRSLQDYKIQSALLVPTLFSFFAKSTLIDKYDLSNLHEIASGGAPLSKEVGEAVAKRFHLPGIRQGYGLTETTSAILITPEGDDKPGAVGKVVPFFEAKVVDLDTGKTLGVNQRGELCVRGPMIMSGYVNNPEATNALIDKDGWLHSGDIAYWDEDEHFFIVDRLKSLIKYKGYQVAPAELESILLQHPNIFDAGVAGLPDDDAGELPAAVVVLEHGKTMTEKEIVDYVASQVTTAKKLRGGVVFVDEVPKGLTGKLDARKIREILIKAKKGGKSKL
# Assay: qHTS assay to identify small molecule inhibitors of firefly luciferase (AID 1224835); note: nearly all actives have a fitted effect of over 25% in size
# Details: purified P. pyralis luciferase, luminescence inhibition; series mostly up to 115 µM
# In short: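 Quantitative HTS format; KM concentrations of both substrates. Purified P. pyralis FLuc activity quantified from luminescence images.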
# Potency is the fitted concentration of half-maximal effect; tags give direction and shape of the fitted curve.
row,SMILES,Potency
1,CCC[N+](=O)[O-],active: 34.9 µM
2,CCOC(=O)C1(c2ccccc2)CCN(CCC(C#N)(c2ccccc2)c2ccccc2)CC1,inactive
3,CCCCCCI,"inconclusive: 79.7 µM [inhibitor, single point]"
4,Oc1cccc(Cl)c1Cl,"inconclusive: 89.7 µM [inhibitor, partial curve, poor fit]"
5,OCCCBr,"inconclusive: 89.4 µM [inhibitor, single point]"
6,Oc1ccc([C@H]2CNCc3c2ccc(O)c3O)cc1O,"inconclusive: 30.9 µM [inhibitor, partial curve]"
7,CCCn1cc[n+](C)c1,inactive
8,CCSCc1ccccc1OC(=O)NC,inactive
9,Cc1ccccc1C(=O)Nc1cccc(OC(C)C)c1,"inconclusive: 39.9 µM [inhibitor, partial curve]"
10,O=[N+]([O-])c1cccc2ccccc12,inconclusive: 89.4 µM [inhibitor] and inactive
11,COP(=S)(OC)Oc1nc(Cl)c(Cl)cc1Cl,"inconclusive: 44.8 µM [inhibitor, partial curve]"
12,C=C(C)C(=O)OCCCCOC(=O)C(=C)C,"inconclusive: 89.4 µM [inhibitor, single point]"
13,C/C=C/C=O,inactive
14,CCN(CC)C(=O)SCc1ccc(Cl)cc1,"inconclusive: 36.7 µM [inhibitor, full curve]"
15,CCOP(=S)(OCC)OP(=S)(OCC)OCC,"inconclusive: 72.9 µM [inhibitor, partial curve, poor fit] and inconclusive: 39.9 µM [inhibitor, partial curve]"
16,CC[N+]1(C)CCCC1,"inconclusive: 23 µM [inhibitor, partial curve]"
17,BrCC(Br)c1ccccc1 (stereo unspecified),"inconclusive: 89.4 µM [inhibitor, partial curve, poor fit]"
18,COP(=S)(OC)Oc1cc(Cl)c(I)cc1Cl,active: 79.6 µM
19,O=C(O)COc1ccc(Cl)cc1Cl,"inconclusive: 79.6 µM [inhibitor, partial curve] [middle of 5 runs]"
20,O=S(=O)(Cl)c1ccccc1,inactive
21,N#C/C=C/C#N,"inconclusive: 83.4 µM [inhibitor, single point]"
22,Cc1ccc(N)cc1N,"inconclusive: 61.6 µM [inhibitor, partial curve] and inconclusive: 89.4 µM [inhibitor, single point]"
23,CC(C)(C)c1ccccc1O,"inconclusive: 90.5 µM [inhibitor, partial curve, poor fit]"
24,CCOc1cc(Oc2ccc(C(F)(F)F)cc2Cl)ccc1[N+](=O)[O-],inactive
25,COC(=O)Nc1cccc(OC(=O)Nc2cccc(C)c2)c1,active: 6.33 µM and active: 12.6 µM
26,CNC(=O)Oc1cc(C)c(SC)c(C)c1,"inconclusive: 79.6 µM [inhibitor, single point]"

# Test system: not listed separately
# Assay: qHTS assay to identify small molecule antagonists of the constitutive androstane receptor (CAR) signaling pathway - cell viability counter screen (AID 1224837); note: nearly all actives have a fitted effect of over 45% in size
# Details: HepG2-CYP2B6-hCAR viability, CellTiter-Fluor, 23 h, co-treated with 50 nM CITCO; series mostly up to 92.4 µM
# In short: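 Using CellTiter-Fluor, viability is scored in HepG2 cells stably carrying hCAR and a 2.2kb CYP2B6 reporter after 23 hr compound exposure across 15 concentrations, with CITCO present at 50 nM.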
row,SMILES,Potency
1,CC(C)OC(=S)S,"inconclusive: 30.6 µM [cytotoxic, partial curve]"
2,CCOCN(C(=O)CCl)c1c(C)cccc1CC,inconclusive: 68.6 µM [cytotoxic]
3,Cl/C=C/CCl,inactive
4,CC(C)(C)C(O)C(Oc1ccc(-c2ccccc2)cc1)n1cncn1 (stereo unspecified),"inconclusive: 68.6 µM [cytotoxic, single point]"
5,CCC(=O)C(CC(C)N(C)C)(c1ccccc1)c1ccccc1 (stereo unspecified),"inconclusive: 24.4 µM [cytotoxic, partial curve] and inconclusive: 60.7 µM [cytotoxic, partial curve, poor fit]"

# From PubChem BioAssay (Tox21)
